# Test results as given in PubChem BioAssay AID2451 (National Center for Advancing Translational Sciences (NCATS), 2010).
# About 2,100 (0.72%) of roughly 290,000 compounds were called active. The inconclusive results got no clear call from the source; some entries with a clear call stand among them for comparison. The call rests on the fitted dose curve; in most records, active means well fitted inhibition curve with a large enough effect; inconclusive means small, poorly fitted or top-dose-only effect, or effect the other way; inactive means flat fitted curve, though single readings scatter. Potencies beside an inconclusive call are fits to weak or partial responses and may not hold up.
# Target: Fructose-bisphosphate aldolase (Giardia intestinalis (strain ATCC 50803 / WB clone C6)) (UniProt A8B2U2)
# Chain of UniProt A8B2U2 (A8B2U2 whole entry, looked up): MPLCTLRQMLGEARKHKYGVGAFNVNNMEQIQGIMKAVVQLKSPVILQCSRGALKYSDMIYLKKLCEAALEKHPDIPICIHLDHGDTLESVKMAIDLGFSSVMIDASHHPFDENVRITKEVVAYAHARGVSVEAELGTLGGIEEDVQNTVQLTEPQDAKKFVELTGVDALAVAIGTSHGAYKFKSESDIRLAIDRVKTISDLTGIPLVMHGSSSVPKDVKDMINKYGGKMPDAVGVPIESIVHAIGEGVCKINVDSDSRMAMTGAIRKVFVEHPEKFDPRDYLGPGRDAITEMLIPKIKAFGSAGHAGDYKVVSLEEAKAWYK
# Assay: qHTS Assay for Inhibitors of Fructose-1,6-bisphosphate Aldolase from Giardia Lamblia; further: nearly all actives have a fitted effect of over 55% in size
# Conditions: purified Giardia FBPA; activity, negative = inhibition: at 59.6 µM (top of the series) unless noted
# Outline: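 Giardia FBPA (40 nM reagent) was preincubated 10 min at RT with compound (up to 57.5 uM final), then substrate plus GAPDH/TPI/NAD/arsenate coupling system with diaphorase/resazurin was added; resorufin fluorescence (525/598 nm) was read after 20 min.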
# On the % scale 0 is the no-effect control and ±100 the full control effect; potency means the concentration at half of the fitted maximal effect; tags describe the fitted curve by direction and shape.
Structure (SMILES),Potency,"activity, negative = inhibition"
CCN(CC)CCOCCOc1ccc(Cl)c2ccccc12,"inconclusive: 19.9 µM [inhibitor, partial curve]",
Cc1cc(C)c2cc(C(c3nnnn3C3CCCC3)N3CCOCC3)c(=O)[nH]c2c1 (configuration not stated),"inconclusive: 44.6 µM [inhibitor, partial curve]",
CCNc1ccccc(C(=O)/C=C/c2ccc3c(c2)OCO3)c1=O,"inconclusive: 14.1 µM [inhibitor, partial curve]",
Fc1ccccc1N1CCN(Cc2c(F)cccc2F)CC1,"inconclusive: 22.3 µM [inhibitor, partial curve]",
O=c1nc2cccc3c2=c(/c1=C(\O)c1ccccc1)c1ccccc1c3=O,"inconclusive: 6.29 µM [inhibitor, partial curve]",
COc1ccc(OCCN2CCN(C(=O)c3ccc(OC(F)F)c(OC)c3)CC2)cc1,,inactive: -11.5%
O=C(Cc1cccs1)Nc1nnc(SCC(=O)N2CCCCC2)s1,"inconclusive: 31.5 µM [activator, single point]",
O=C(Cc1c(F)cccc1Cl)NCCN1CCOCC1,,inactive: 0.0048%
CC1CCN(C(=O)CSc2nc(N)c(NC(=O)c3ccccc3)c(=O)[nH]2)CC1,"inconclusive: 28.2 µM [inhibitor, partial curve, poor fit]",
O=C(Oc1c(CN2CCOCC2)cc(Cl)c2cccnc12)c1cccs1,"inconclusive: 19.9 µM [inhibitor, single point]",
Clc1cccc(Nc2c3c(nc4ncnn24)CCC3)c1,"inconclusive: 20 µM [activator, partial curve]",
Cc1ccc(C2C(C#N)=C(N)Oc3n[nH]c(-c4ccccc4)c32)o1 (configuration not stated),"inconclusive: 15.8 µM [inhibitor, single point]",
Cc1ccc(CN(C)C(=O)c2ccc3c(c2)NC(=O)CS3)o1,,inactive: -17.3%
COc1cccc(C(=O)NC(=S)Nc2ccccc2N2CCCCC2)c1,active: 15.8 µM,
COc1cccc(CN2CCNCC2)c1,active: 3.55 µM,
Cc1cc(C)c(-n2[nH]nnc2=S)c(C)c1,active: 14.1 µM,
O=C1NCC2=C1C(c1ccccc1)Nc1ccccc1N2 (configuration not stated),"inconclusive: 15.8 µM [inhibitor, partial curve]",
CCc1ccc(/C=c2\s/c(=C\C(=O)C(C)(C)C)[nH]c2=O)cc1,,inactive: -6.77%
Cc1noc(NS(=O)(=O)c2ccc(N/C=C\C(=O)c3cccs3)cc2)c1C,,inactive: 25.5%
CN1CCN(C2=Cc3ccc(Cl)cc3Sc3ccc(F)cc32)CC1,,inactive: -2.57%
NS(=O)(=O)c1ccc(CCNC(=O)CSc2nc3ccsc3c(=O)n2CC(=O)O)cc1,"inconclusive: 17.7 µM [activator, single point]",
CSc1ccccc1-c1n[nH]c(=S)o1,"inconclusive: 15.8 µM [inhibitor, single point]",
c1cnc2c(OCc3nc4ccccc4[nH]3)cccc2c1,"inconclusive: 15.8 µM [inhibitor, single point]",
CC(/C=N/NC(=O)c1cnccn1)=C\c1ccco1,"inconclusive: 17.7 µM [inhibitor, partial curve]",

Structure (SMILES),Potency,"activity, negative = inhibition"
CC(C)(C)c1nc2ccc(NS(=O)(=O)c3ccc(F)c(F)c3F)cc2[nH]1,"inconclusive: 31.6 µM [inhibitor, single point]",
COc1ccc(-c2ccnc3cc(C(=O)O)nn23)cc1,active: 17.7 µM,
Cc1oc(-c2ccc(Cl)cc2)cc1-c1nn2c(-c3ccoc3C)nnc2s1,"inconclusive: 17.7 µM [inhibitor, partial curve]",
Cc1cc(C)n(CC(O)Cn2c3ccccc3c3ccccc32)c(=O)n1 (configuration not stated),,inactive: 4.49%
Cc1ccc(-c2csc(NC(=O)c3cccc([N+](=O)[O-])c3)n2)cc1,,inactive: 1.38%
CN(C1=C(NC(=O)c2ccc(Cl)cc2)C(=O)c2ccccc2C1=O)c1ccccc1,"inconclusive: 1.41 µM [inhibitor, full curve]",
CC(C)c1ccc2c(c1)C1Cc3ccccc3C1N2 (configuration not stated),"inconclusive: 12.6 µM [inhibitor, partial curve]",
Cc1[nH][nH]c(=O)c1C(c1ccc(-c2ccc(F)cc2)o1)c1c(C)[nH][nH]c1=O,"inconclusive: 19.9 µM [inhibitor, partial curve]",
O=c1[nH][nH]c(-c2ccccc2O)c1C(C[N+](=O)[O-])c1cccc(Cl)c1 (configuration not stated),"inconclusive: 15.8 µM [inhibitor, single point]",
CC1CN(C(=O)c2cccc(COc3ccccc3Cl)c2)CC(C)O1 (configuration not stated),,inactive: -1.82%
C=CCNc1nc(-c2c(C)nc3ncccn23)cs1,"inconclusive: 17.8 µM [inhibitor, partial curve]",
CC(C)CC(=O)N1CCN(Cc2ccc(C(F)(F)F)cc2)CC1,active: 31.6 µM,
NC(N)=N/N=C/c1cccc(Cl)c1Cl,,inactive: -22.5%
CCCC(=O)NC(c1ccccc1)c1ccc2cccnc2c1O (configuration not stated),"inconclusive: 20 µM [activator, partial curve]",
CC1(C)Nc2ccc(O)cc2-c2c1ssc2=S,"inconclusive: 9.98 µM [inhibitor, partial curve]",
O=C(/C(=C/c1ccncc1)n1ccnc1)c1ccc(Cl)cc1Cl,,inactive: 3.12%
O=S(=O)(Nc1ncccn1)c1ccccc1,"inconclusive: 28.2 µM [inhibitor, partial curve]",
O=C(O)CC1(CC(=O)NCc2ccc(-c3cccs3)cc2)CCCCC1,"inconclusive: 15.8 µM [activator, partial curve]",
C=CCn1c(=S)[nH]c2scc(-c3ccco3)c2c1=O,"inconclusive: 11.2 µM [inhibitor, partial curve]",
CCOC(=O)CSc1nnc(NC(=O)c2cccc([N+](=O)[O-])c2)s1,"inconclusive: 19.9 µM [inhibitor, partial curve]",
CC(C)(C)C(=O)NC1CCN(C(=O)N2CCCC2)CC1,,inactive: 4.26%
O=C(/C=C/c1ccccc1)NC(=S)NNC(=O)c1cnccn1,"inconclusive: 44.6 µM [inhibitor, single point]",
Cc1ccc(C(C)(C)C)c(OCCCCN2CCCC2)c1,"inconclusive: 22.3 µM [inhibitor, partial curve]",
